Source: PubChem BioAssay AID485294 (National Center for Advancing Translational Sciences (NCATS), 2010)
Out of some 370,000 compounds screened, about 150 (0.041%) were called active. Inconclusive means that the source gave no clear call. Such entries were picked first, then a sample of the others. Calls follow the shape of the dose curve; as a rule, active = well fitted inhibition curve with a large enough effect; inconclusive = small, poorly fitted or top-dose-only effect; inactive = flat fitted curve, though single readings scatter. Potencies of inconclusive entries are left out as doubtful fits.

The compounds below were run against Beta-lactamase (Escherichia coli (strain K12)) (UniProt P00811) (assay: qHTS Inhibitors of AmpC Beta-Lactamase (assay with detergent)). Settings: AmpC hydrolysis of nitrocefin, absorbance 480 nm, 0.01% Triton; series mostly up to 114 µM.
In short: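 AmpC (5.3 nM in the dispensed reagent) in 20 mM phosphate pH 7.0 with 0.01% (detergent screen) or 0.0001% Triton X-100 was preincubated with compounds for 15 min at room temperature. Nitrocefin was then added from an 800 uM solution, and hydrolysis was followed at 480 nm.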
Also: nearly all actives have a fitted effect of over 25% in size.
Potency is read from the fitted curve at half-maximal effect; tags tell the direction and shape of the fitted curve.

Sequence of UniProt P00811 (P00811 whole entry, looked up): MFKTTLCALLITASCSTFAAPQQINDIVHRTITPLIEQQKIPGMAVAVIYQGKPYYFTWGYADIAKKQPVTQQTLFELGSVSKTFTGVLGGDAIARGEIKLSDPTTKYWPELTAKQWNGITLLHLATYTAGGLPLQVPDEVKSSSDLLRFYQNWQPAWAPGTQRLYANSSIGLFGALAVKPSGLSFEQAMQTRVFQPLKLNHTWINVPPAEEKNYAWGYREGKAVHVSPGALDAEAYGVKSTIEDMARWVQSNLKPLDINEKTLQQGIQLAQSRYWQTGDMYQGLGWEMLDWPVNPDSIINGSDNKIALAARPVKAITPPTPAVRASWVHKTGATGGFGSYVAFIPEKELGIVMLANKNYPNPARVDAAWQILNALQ

Structure (SMILES) | Potency
COc1cccc(OCC(=O)Nc2cc(Cl)ccc2Oc2ccccc2)c1 | inconclusive [inhibitor, full curve, poor fit]
CCC(C)[C@H](NC(=O)[C@@H]1CSC2c3ccccc3C(=O)N21)C(=O)NC1CCCC1 (stereo partly drawn) | inactive
CC(Sc1ccc(Cl)cc1)C(=O)N(C)CC(=O)Nc1ccc(N2CCOCC2)cc1 (stereo not drawn) | inactive
CCOC(=O)N1CCN(C(=O)c2ccc(Cl)c(NC(=O)c3cccs3)c2)CC1 | inactive
COc1cccc(C(=O)Nc2ccccc2C(=O)OCc2cc(=O)n3c(C)csc3n2)c1 | inconclusive [inhibitor, partial curve]
O=C(c1ccc(S(=O)(=O)Nc2ccccc2F)cc1)N1CCC1 | inconclusive [inhibitor, full curve, poor fit]
CCOc1ccc(NC(=O)N(c2ccccc2)c2ccccc2)cc1 | inconclusive [inhibitor, full curve, poor fit]
Cc1cc(N)n2nc(C)c(-c3ccccc3)c2n1 | inactive
CCOc1ccc(S(=O)(=O)NCCC(=O)NCc2ccncc2)cc1 | inconclusive [inhibitor, full curve]
CC(C)NC(=O)C1(c2ccccc2)CC1(Cl)Cl (stereo not drawn) | inconclusive [inhibitor, partial curve, poor fit]
CCCC(C)C(=O)Nc1ccc(C(N)=O)cc1 (stereo not drawn) | inconclusive [inhibitor, partial curve, poor fit]
Cc1cc(OCC(=O)N(C)Cc2ccccc2)ccc1Cl | inactive
CCCOc1nc2c(c(=O)n(C)c(=O)n2C)n1Cc1cccc2ccccc12 | inconclusive [inhibitor, full curve, poor fit]
COc1ccc(NC(=O)/C(C#N)=C/c2ccc(Sc3nncn3C)c([N+](=O)[O-])c2)cc1 | inconclusive [inhibitor, full curve, poor fit]
O=C(C1=C[C@H](c2ccc3c(c2)OCO3)C[C@H](OCc2ccc(CO)cc2)O1)N1CCCCCCC1 | inactive
COC(=O)CCCC1=CC2=CC(=O)C(C)(OC(=O)c3cccs3)C(=O)C2=CN1CCCCO (stereo not drawn) | inactive
CCc1ccc(CNc2ccc(N3CCN(C(C)=O)CC3)cc2)cc1 | inconclusive [inhibitor, full curve, poor fit]
CN(C(=O)c1sc2nc(N3CCCC3)c3c(c2c1N)CC(C)(C)OC3)c1ccccc1 | inconclusive [inhibitor, full curve, poor fit]
COCCNC(=O)Cc1ccc(F)cc1 | inconclusive [inhibitor, partial curve]
COc1ccc(OC)c(NC(=O)c2ccccc2SC)c1 | inactive
CC(C)Cc1nc2oc3c(N4CCN(C)CC4)ncnc3c2c2c1CCCC2 | inconclusive [inhibitor, partial curve, poor fit]
N#CCOc1ccccc1/C=C/c1nc2ccccc2c(=O)[nH]1 | inconclusive [inhibitor, partial curve, poor fit]
COc1ccccc1CNc1nc2ccccc2c2nc(-c3cccnc3)nn12 | inactive

Structure (SMILES) | Potency
O=C(COc1ccccc1Cl)OCc1cc(=O)n2nc(C3CC3)sc2n1 | inconclusive [inhibitor, partial curve]
Cc1ccc(S(=O)(=O)N(C)C)cc1NC(=O)c1ccc(OC(F)(F)F)cc1 | inconclusive [inhibitor, full curve, poor fit]
COc1ccc(NC(=O)C(=O)NCCc2ccc(OC)c(OC)c2)c(OC)c1 | inactive
COc1ccc(Cn2c(=O)[nH]c3cc(C(=O)Nc4ccccc4C)ccc32)cc1 | inconclusive [inhibitor, partial curve, poor fit]
CN(Cc1ccco1)S(=O)(=O)c1nnc(NC(=O)c2ccc(F)cc2)s1 | inconclusive [inhibitor, full curve, poor fit]
CCCN1C(=O)c2ccccc2NC1c1ccc(Br)cc1 (stereo not drawn) | inactive
CCOc1cc(CNCCO)c(Cl)cc1OCC(=O)NCCc1ccccc1 | inconclusive [inhibitor, partial curve, poor fit]
Cc1sc2nc(CN3CCCCC3)nc(Cl)c2c1C | inactive
O=C(c1cc(-c2ccc(Cl)cc2)on1)N(Cc1cccc(F)c1)Cc1ccco1 | inactive
O=C(O)CC1Sc2ccccc2NC1=O (stereo not drawn) | inactive
CCSc1nnc(NC(=O)CSc2nnc(-c3c[nH]c4ccccc34)n2C)s1 | inconclusive [inhibitor, full curve]
CCCOc1ccc(C(=O)CCC(=O)NNC(=O)Cn2nc(C)cc2C)cc1 | inconclusive [inhibitor, full curve]
O=C(/C=C1\NC2(CCCC2)Cc2ccccc21)C(=O)N/N=C/c1ccccc1O | inconclusive [inhibitor, single point]
Cn1cc(S(=O)(=O)c2ccc(Cl)cc2)c(=O)c2cc(F)c(N3CCCC3)cc21 | inactive
O=C1C=C(Nc2ccccc2)CC(c2ccccc2)C1 (stereo not drawn) | inactive
COc1ccccc1CC(=O)Nc1cccc(F)c1 | inconclusive [inhibitor, partial curve]
CCN1CC=C2C(C#N)=C(N)C(C#N)(C#N)C(c3cc(Cl)ccc3Cl)C2C1 (stereo not drawn) | inconclusive [inhibitor, partial curve, poor fit]
Cc1cccc(C)c1OCC(=O)Nc1cc(Cl)ccc1-n1cncn1 | inconclusive [inhibitor, full curve, poor fit]
COc1ccc(/C=C(/NC(=O)c2ccccc2)C(=O)N/N=C/c2sccc2C)cc1 | inactive
COc1ccc(CNC(=O)C2CCN(C(=O)c3cccc(Cl)c3)CC2)cc1 | inconclusive [inhibitor, partial curve]
CCOc1ccc(NC(=NCc2ccc3c(c2)OCO3)SC2CC(=O)N(c3ccccc3)C2=O)cc1 (stereo not drawn) | inconclusive [inhibitor, partial curve]
Cc1cnn(-c2cc(N/N=C/c3ccc(F)cc3)ncn2)c1 | inconclusive [inhibitor, partial curve]
COc1ccccc1CNC(=O)CCCn1nc(C)c2sc3ccccc3c2c1=O | inactive

Structure (SMILES) | Potency
C=CCn1c(NCc2ccccc2O)nc2ccccc21 | inactive
CCC(C)OC(=O)c1[nH]c2c(c1C)C(=O)CC(c1ccc(N(C)C)cc1)C2 (stereo not drawn) | inconclusive [inhibitor, full curve]
CN(C)/C=C1/Sc2ccccc2C1=O | inconclusive [inhibitor, partial curve]
COc1cccc(NC(=O)C2CCCN(c3nnc(-n4c(C)ccc4C)s3)C2)c1 (stereo not drawn) | inactive
O=S(=O)(Nc1ccc(N=Nc2ccccc2)cc1)c1ccccc1 | inactive
O=C1COc2ccc(C(=O)COC(=O)c3ccccn3)cc2N1 | inconclusive [inhibitor, partial curve]
CC(=O)NCCn1c(SCC(=O)c2ccccc2)nc2ccccc2c1=O | inconclusive [inhibitor, full curve, poor fit]
Cc1cccc(CNC(=O)CCCN2C(=O)CCn3nc(-c4cn(C)c5ccccc45)cc32)c1 | inconclusive [inhibitor, full curve, poor fit]
CC(=O)c1c(C)[nH]c(C(=O)CN2C(=O)NC(C)(c3ccc4c(c3)OCCO4)C2=O)c1C (stereo not drawn) | inconclusive [inhibitor, partial curve, poor fit]
Cc1cc(C)c(C)c(S(=O)(=O)Nc2ccc(C(=O)N3CCCC3)cc2)c1C | inconclusive [inhibitor, full curve, poor fit]
CCc1c(C)nc(SCC(=O)c2cccs2)c(C#N)c1C | inconclusive [inhibitor, full curve, poor fit]
Cc1cc2c(cc1S(=O)(=O)Nc1cccc(F)c1)n(C)c(=O)c(=O)n2C | inactive
CCN1C(=O)c2cccc3c(N)ccc1c23 | inconclusive [inhibitor, full curve]
CC(=O)Nc1ccc(NC(=O)C2CC(=O)N(C(C)C)C2)cc1 (stereo not drawn) | inconclusive [inhibitor, partial curve, poor fit]
CC(=O)N1CCc2cc(Br)cc(S(=O)(=O)N3CCN(c4cc(C)ccc4C)CC3)c21 | inconclusive [inhibitor, partial curve, poor fit]
Cc1cccc(C(=O)NC2CCN(C(=O)Nc3ccc(F)cc3)CC2)c1 | inconclusive [inhibitor, partial curve]
O=C1CC(c2ccccc2)CC(O)=C1C=NCCN1CCNCC1 (stereo not drawn) | inconclusive [inhibitor, full curve, poor fit]
O=c1[nH]c2ccccc2n1CCCSc1cnc2ccccc2n1 | inconclusive [inhibitor, full curve, poor fit]
Cc1ccc(NC(=O)COC(=O)C(NS(=O)(=O)c2ccc(Cl)cc2)C(C)O)c(Br)c1 (stereo not drawn) | inconclusive [inhibitor, full curve, poor fit]
C#CC(C)(CC)NC(=O)c1cc2c(n(-c3ccc(Cl)cc3)c1=O)CC(C)(C)CC2=O (stereo not drawn) | inactive
CS(=O)(=O)c1ccccc1-c1nnc(NC(=O)c2cccc(N3C(=O)CCC3=O)c2)o1 | inconclusive [inhibitor, partial curve, poor fit]
Cc1ccc(C(=O)NCCCn2ccnc2)o1 | inconclusive [inhibitor, partial curve, poor fit]
